Results as given in the supplement of paper PMC8728848.
The other results are listed elsewhere or left out.

Legend:
Assay in all cases: glycan array binding signal (z-score within array); higher = stronger binding
Details in all cases: glycan notation: IUPAC condensed, linker removed
Fuc(a1-2)Gal = target: Fuc(a1-2)Gal
Outline: (§1)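 From the Consortium for Functional Glycomics database, 3228 arrays were curated, keeping only those whose protein sequence was available. Binding is given as a within-array Z-score averaged across arrays sharing a protein sequence and across linkers. Negative Z-scores can be read as non-binding.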

Fuc(a1-2)Gal(b1-3)GalNAc = target: Fuc(a1-2)Gal(b1-3)GalNAc
Outline: as §1

[1] = target: Fuc(a1-2)Gal(b1-3)GalNAc(a1-3)[Fuc(a1-2)]Gal(b1-4)Glc
Outline: as §1

[2] = target: Fuc(a1-2)Gal(b1-3)GalNAc(a1-3)[Fuc(a1-2)]Gal(b1-4)GlcNAc
Outline: as §1

[3] = target: Fuc(a1-2)Gal(b1-3)GalNAc(b1-3)Gal
Outline: as §1

[4] = target: Fuc(a1-2)Gal(b1-3)GalNAc(b1-3)Gal(a1-4)Gal(b1-4)Glc
Outline: as §1

[5] = target: Fuc(a1-2)Gal(b1-3)GalNAc(b1-4)[Neu5Ac(a2-3)]Gal(b1-4)Glc
Outline: as §1

Fuc(a1-2)Gal(b1-3)GlcNAc = target: Fuc(a1-2)Gal(b1-3)GlcNAc
Outline: as §1

[6] = target: Fuc(a1-2)Gal(b1-3)GlcNAc(b1-2)Man(a1-3)[Fuc(a1-2)Gal(b1-3)GlcNAc(b1-2)Man(a1-6)]Man(b1-4)GlcNAc(b1-4)GlcNAc
Outline: as §1

[7] = target: Fuc(a1-2)Gal(b1-3)GlcNAc(b1-2)Man(a1-3)[Fuc(a1-2)Gal(b1-3)GlcNAc(b1-2)Man(a1-6)]Man(b1-4)GlcNAc(b1-4)[Fuc(a1-6)]GlcNAc
Outline: as §1

[8] = target: Fuc(a1-2)Gal(b1-3)GlcNAc(b1-3)Gal(b1-4)Glc
Outline: as §1

[9] = target: Fuc(a1-2)Gal(b1-3)GlcNAc(b1-3)GalNAc
Outline: as §1

[10] = target: Fuc(a1-2)Gal(b1-3)GlcNAc(b1-3)[Fuc(a1-3)[Gal(b1-4)]GlcNAc(b1-6)]Gal(b1-4)Glc
Outline: as §1

[11] = target: Fuc(a1-2)Gal(b1-3)GlcNAc(b1-3)[Gal(b1-4)GlcNAc(b1-6)]Gal(b1-4)Glc
Outline: as §1

[12] = target: Fuc(a1-2)Gal(b1-3)GlcNAc(b1-3)[Neu5Ac(a2-6)Gal(b1-4)GlcNAc(b1-6)]Gal(b1-4)Glc
Outline: as §1

[13] = target: Fuc(a1-2)Gal(b1-3)[Fuc(a1-4)]GlcNAc
Outline: as §1

[14] = target: Fuc(a1-2)Gal(b1-3)[Fuc(a1-4)]GlcNAc(b1-2)Man(a1-3)[Fuc(a1-2)Gal(b1-3)[Fuc(a1-4)]GlcNAc(b1-2)Man(a1-6)]Man(b1-4)GlcNAc(b1-4)GlcNAc
Outline: as §1

[15] = target: Fuc(a1-2)Gal(b1-3)[Fuc(a1-4)]GlcNAc(b1-3)[Fuc(a1-3)[Gal(b1-4)]GlcNAc(b1-6)]Gal(b1-4)Glc
Outline: as §1

[16] = target: Fuc(a1-2)Gal(b1-3)[Fuc(a1-4)]GlcNAc(b1-3)[Gal(b1-4)GlcNAc(b1-6)]Gal(b1-4)Glc
Outline: as §1

Fuc(a1-2)Gal(b1-4)Glc = target: Fuc(a1-2)Gal(b1-4)Glc
Outline: as §1

Fuc(a1-2)Gal(b1-4)Glc6S = target: Fuc(a1-2)Gal(b1-4)Glc6S
Outline: as §1

Fuc(a1-2)Gal(b1-4)GlcNAc = target: Fuc(a1-2)Gal(b1-4)GlcNAc
Outline: as §1

[17] = target: Fuc(a1-2)Gal(b1-4)GlcNAc(b1-2)Man(a1-3)[Fuc(a1-2)Gal(b1-4)GlcNAc(b1-2)Man(a1-6)]Man(b1-4)GlcNAc(b1-4)GlcNAc
Outline: as §1

[18] = target: Fuc(a1-2)Gal(b1-4)GlcNAc(b1-2)Man(a1-3)[Fuc(a1-2)Gal(b1-4)GlcNAc(b1-2)Man(a1-6)]Man(b1-4)GlcNAc(b1-4)[Fuc(a1-6)]GlcNAc
Outline: as §1

[19] = target: Fuc(a1-2)Gal(b1-4)GlcNAc(b1-2)[Fuc(a1-2)Gal(b1-4)GlcNAc(b1-4)]Man(a1-3)[Fuc(a1-2)Gal(b1-4)GlcNAc(b1-2)Man(a1-6)]Man(b1-4)GlcNAc(b1-4)GlcNAc
Outline: as §1

[20] = target: Fuc(a1-2)Gal(b1-4)GlcNAc(b1-3)Gal(b1-4)GlcNAc
Outline: as §1

[21] = target: Fuc(a1-2)Gal(b1-4)GlcNAc(b1-3)Gal(b1-4)GlcNAc(b1-3)Gal(b1-4)GlcNAc
Outline: as §1

[22] = target: Fuc(a1-2)Gal(b1-4)GlcNAc(b1-3)GalNAc
Outline: as §1

[23] = target: Fuc(a1-2)Gal(b1-4)GlcNAc(b1-3)[Fuc(a1-2)Gal(b1-4)GlcNAc(b1-6)]GalNAc
Outline: as §1

[24] = target: Fuc(a1-2)Gal(b1-4)GlcNAc6S
Outline: as §1

[25] = target: Fuc(a1-2)Gal(b1-4)[Fuc(a1-3)]GlcNAc
Outline: as §1

[26] = target: Fuc(a1-2)Gal(b1-4)[Fuc(a1-3)]GlcNAc(b1-2)Man(a1-3)[Fuc(a1-2)Gal(b1-4)[Fuc(a1-3)]GlcNAc(b1-2)Man(a1-6)]Man(b1-4)GlcNAc(b1-4)GlcNAc
Outline: as §1

[27] = target: Fuc(a1-2)Gal(b1-4)[Fuc(a1-3)]GlcNAc(b1-2)[Fuc(a1-2)Gal(b1-4)[Fuc(a1-3)]GlcNAc(b1-4)]Man(a1-3)[Fuc(a1-2)Gal(b1-4)[Fuc(a1-3)]GlcNAc(b1-2)Man(a1-6)]Man(b1-4)GlcNAc(b1-4)GlcNAc
Outline: as §1

[28] = target: Fuc(a1-2)Gal(b1-4)[Fuc(a1-3)]GlcNAc(b1-3)Gal(b1-4)[Fuc(a1-3)]GlcNAc
Outline: as §1

[29] = target: Fuc(a1-2)Gal(b1-4)[Fuc(a1-3)]GlcNAc(b1-3)Gal(b1-4)[Fuc(a1-3)]GlcNAc(b1-3)Gal(b1-4)[Fuc(a1-3)]GlcNAc
Outline: as §1

[30] = target: Fuc(a1-2)Gal(b1-4)[Fuc(a1-3)]GlcNAc(b1-3)GalNAc
Outline: as §1

Fuc(a1-2)Gal6S(b1-4)Glc = target: Fuc(a1-2)Gal6S(b1-4)Glc
Outline: as §1

[31] = target: Fuc(a1-2)Gal6S(b1-4)Glc6S
Outline: as §1

[32] = target: Fuc(a1-2)Gal6S(b1-4)GlcNAc
Outline: as §1

Fuc(a1-2)[Gal(a1-3)]Gal = target: Fuc(a1-2)[Gal(a1-3)]Gal
Outline: as §1

[33] = target: Fuc(a1-2)[Gal(a1-3)]Gal(b1-3)GalNAc
Outline: as §1

[34] = target: Fuc(a1-2)[Gal(a1-3)]Gal(b1-3)GlcNAc
Outline: as §1

[35] = target: Fuc(a1-2)[Gal(a1-3)]Gal(b1-3)GlcNAc(b1-2)Man(a1-3)[Fuc(a1-2)[Gal(a1-3)]Gal(b1-3)GlcNAc(b1-2)Man(a1-6)]Man(b1-4)GlcNAc(b1-4)GlcNAc
Outline: as §1

[36] = target: Fuc(a1-2)[Gal(a1-3)]Gal(b1-3)GlcNAc(b1-2)Man(a1-3)[Fuc(a1-2)[Gal(a1-3)]Gal(b1-3)GlcNAc(b1-2)Man(a1-6)]Man(b1-4)GlcNAc(b1-4)[Fuc(a1-6)]GlcNAc
Outline: as §1

[37] = target: Fuc(a1-2)[Gal(a1-3)]Gal(b1-3)GlcNAc(b1-3)GalNAc
Outline: as §1

B1: RS2L (Ralstonia solanacearum), B5RXL5_RALSO (protein)
chain: MAQQGVFTLPANTSFGVTAFANAANTQTIQVLVDNVVKATFTGSGTSDKLLGSQVLNSGSGAIKIQVSVNGKPSDLVSNQTILANKLNFAMVGSEDGTDNDYNDGIAVLNWPLG
Question: B1 was tested. Which “glycan array binding signal (z-score)” value (Fuc(a1-2)Gal) did it give?
Answer: Its value is 0.021.

Question: What about the “glycan array binding signal (z-score)” value (Fuc(a1-2)Gal(b1-3)GalNAc) of the same binder?
Answer: The value was -0.183.

Question: What about the “glycan array binding signal (z-score)” value [1] of the same binder?
Answer: Its value is -0.219.

Question: What about the “glycan array binding signal (z-score)” value [2] of the same binder?
Answer: Its value is -0.236.

Question: What about the “glycan array binding signal (z-score)” value [3] of the same binder?
Answer: Its value is -0.248.

Question: What about the “glycan array binding signal (z-score)” value [4] of the same binder?
Answer: The value was -0.224.

Question: What about the “glycan array binding signal (z-score)” value [5] of the same binder?
Answer: Its value is -0.211.

Question: What about the “glycan array binding signal (z-score)” value (Fuc(a1-2)Gal(b1-3)GlcNAc) of the same binder?
Answer: The value was -0.216.

Question: And the “glycan array binding signal (z-score)” value [6]?
Answer: Its value is 0.317.

Question: What about the “glycan array binding signal (z-score)” value [7] of the same binder?
Answer: The value was 0.443.

Question: And the “glycan array binding signal (z-score)” value [8]?
Answer: The value was -0.174.

Question: What about the “glycan array binding signal (z-score)” value [9] of the same binder?
Answer: Its value is -0.211.

Question: And the “glycan array binding signal (z-score)” value [10]?
Answer: Its value is -0.192.

Question: And the “glycan array binding signal (z-score)” value [11]?
Answer: The value was -0.211.

Question: What about the “glycan array binding signal (z-score)” value [12] of the same binder?
Answer: The value was -0.18.

Question: What about the “glycan array binding signal (z-score)” value [13] of the same binder?
Answer: The value was -0.189.

Question: And the “glycan array binding signal (z-score)” value [14]?
Answer: Its value is -0.101.

Question: And the “glycan array binding signal (z-score)” value [15]?
Answer: The value was -0.194.

Question: What about the “glycan array binding signal (z-score)” value [16] of the same binder?
Answer: Its value is -0.157.

Question: What about the “glycan array binding signal (z-score)” value (Fuc(a1-2)Gal(b1-4)Glc) of the same binder?
Answer: Its value is -0.213.

Question: What about the “glycan array binding signal (z-score)” value (Fuc(a1-2)Gal(b1-4)Glc6S) of the same binder?
Answer: Its value is -0.066.

Question: And the “glycan array binding signal (z-score)” value (Fuc(a1-2)Gal(b1-4)GlcNAc)?
Answer: The value was -0.033.

Question: And the “glycan array binding signal (z-score)” value [17]?
Answer: Its value is 0.128.

Question: And the “glycan array binding signal (z-score)” value [18]?
Answer: The value was 0.476.

Question: And the “glycan array binding signal (z-score)” value [19]?
Answer: Its value is -0.027.

Question: What about the “glycan array binding signal (z-score)” value [20] of the same binder?
Answer: The value was -0.148.

Question: What about the “glycan array binding signal (z-score)” value [21] of the same binder?
Answer: The value was 0.211.

Question: And the “glycan array binding signal (z-score)” value [22]?
Answer: The value was -0.205.

Question: What about the “glycan array binding signal (z-score)” value [23] of the same binder?
Answer: The value was -0.141.

Question: What about the “glycan array binding signal (z-score)” value [24] of the same binder?
Answer: Its value is -0.165.

Question: And the “glycan array binding signal (z-score)” value [25]?
Answer: Its value is 0.025.

Question: What about the “glycan array binding signal (z-score)” value [26] of the same binder?
Answer: The value was -0.237.

Question: What about the “glycan array binding signal (z-score)” value [27] of the same binder?
Answer: The value was -0.175.

Question: And the “glycan array binding signal (z-score)” value [28]?
Answer: Its value is 0.111.

Question: What about the “glycan array binding signal (z-score)” value [29] of the same binder?
Answer: The value was -0.005.

Question: What about the “glycan array binding signal (z-score)” value [30] of the same binder?
Answer: Its value is -0.224.

Question: And the “glycan array binding signal (z-score)” value (Fuc(a1-2)Gal6S(b1-4)Glc)?
Answer: The value was -0.15.

Question: And the “glycan array binding signal (z-score)” value [31]?
Answer: Its value is 0.115.

Question: What about the “glycan array binding signal (z-score)” value [32] of the same binder?
Answer: The value was 0.082.

Question: And the “glycan array binding signal (z-score)” value (Fuc(a1-2)[Gal(a1-3)]Gal)?
Answer: Its value is -0.165.

Question: What about the “glycan array binding signal (z-score)” value [33] of the same binder?
Answer: Its value is -0.241.

Question: And the “glycan array binding signal (z-score)” value [34]?
Answer: Its value is -0.244.

Question: What about the “glycan array binding signal (z-score)” value [35] of the same binder?
Answer: The value was 0.26.

Question: What about the “glycan array binding signal (z-score)” value [36] of the same binder?
Answer: The value was 1.19.

Question: And the “glycan array binding signal (z-score)” value [37]?
Answer: Its value is -0.241.
